Measurements taken from PubChem BioAssay AID1645886 (National Center for Advancing Translational Sciences (NCATS), 2021).
Screen size: about 16,000 compounds; about 260 (1.6%) were called active. Inconclusive results, whose numbers are uncertain, are shown with a selection of clear calls. The call rests on the fitted dose curve; in most records, active means well fitted inhibition curve with a large enough effect; inconclusive means small, poorly fitted or top-dose-only effect; inactive means no such curve, though single readings can be large or run the other way. No potency is given beside an inconclusive call; the fits are too rough.

Target: Rap guanine nucleotide exchange factor 4 (Homo sapiens) (UniProt Q8WZA2)
Assay: Validation qHTS for antagonist of cAMP-regulated guanine nucleotide exchange factor 4 (EPAC2); further: nearly all actives have a fitted effect of over 40% in size;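 on activity, negative = inhibition: 100% = activation by cAMP agonist control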
Details: EPAC2 Rap1B BODIPY-GDP exchange, fluorescence; activity, negative = inhibition: at 112 µM (top of the series)
Summary of the method: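 Fluorescent exchange read-out: 100 nM EPAC2 with 250 nM RAP1B–BODIPY-GDP and 50 uM GDP; BODIPY-GDP release lowers fluorescence. Read at 480/540 nm every 5 min for 30 min at room temperature; normalized to 6.5 mM cAMP.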
Potency means the concentration at half of the fitted maximal effect; tags describe the fitted curve by direction and shape.

UniProt Q8WZA2, sequence (Q8WZA2 whole entry, looked up): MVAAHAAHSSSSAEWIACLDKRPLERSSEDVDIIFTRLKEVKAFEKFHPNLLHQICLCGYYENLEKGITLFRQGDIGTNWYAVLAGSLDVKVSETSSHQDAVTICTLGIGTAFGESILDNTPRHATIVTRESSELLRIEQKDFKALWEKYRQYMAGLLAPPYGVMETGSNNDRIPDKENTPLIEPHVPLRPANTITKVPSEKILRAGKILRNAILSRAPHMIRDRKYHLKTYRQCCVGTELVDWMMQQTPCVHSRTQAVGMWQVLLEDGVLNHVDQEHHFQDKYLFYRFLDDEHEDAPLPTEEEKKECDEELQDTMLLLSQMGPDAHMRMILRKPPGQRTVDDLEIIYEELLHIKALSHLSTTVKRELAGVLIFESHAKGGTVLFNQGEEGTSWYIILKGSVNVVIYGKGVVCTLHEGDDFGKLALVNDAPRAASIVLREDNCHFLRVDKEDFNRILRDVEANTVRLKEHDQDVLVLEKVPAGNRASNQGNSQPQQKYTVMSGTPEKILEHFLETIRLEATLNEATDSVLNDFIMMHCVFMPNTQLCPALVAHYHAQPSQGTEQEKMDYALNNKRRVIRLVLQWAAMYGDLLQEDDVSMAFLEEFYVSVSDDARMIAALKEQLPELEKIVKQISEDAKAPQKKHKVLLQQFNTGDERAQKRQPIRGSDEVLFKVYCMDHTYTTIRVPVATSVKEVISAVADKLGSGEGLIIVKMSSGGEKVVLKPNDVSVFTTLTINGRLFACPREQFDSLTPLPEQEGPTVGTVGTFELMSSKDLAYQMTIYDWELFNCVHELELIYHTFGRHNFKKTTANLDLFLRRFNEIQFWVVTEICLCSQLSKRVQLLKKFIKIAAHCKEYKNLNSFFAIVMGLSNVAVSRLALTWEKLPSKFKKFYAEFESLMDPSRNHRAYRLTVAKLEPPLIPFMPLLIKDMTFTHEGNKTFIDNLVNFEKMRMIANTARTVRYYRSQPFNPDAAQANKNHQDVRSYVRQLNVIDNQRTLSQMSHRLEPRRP

Row | Structure (SMILES) | Potency | activity, negative = inhibition
1 | Cc1c(C(=O)N2CC3CCC2C3)sc2ncnc(NCCc3c[nH]c4ccccc34)c12 (stereo not drawn) | inactive | 
2 | COc1ccc(CN2CCCC(n3cc(C(=O)NC4CCCC4)nn3)C2)c2ccccc12 (stereo not drawn) | inconclusive [inhibitor, single point] | 
3 | Cc1cnc(C)c(-c2cc(F)c3c(c2)CC(CNC(=O)c2cccc(Cn4cccn4)c2)O3)n1 (stereo not drawn) | inconclusive [inhibitor, full curve] | 
4 | CC1CN(Cc2cccn2-c2ncccn2)Cc2cc(Cl)ccc2O1 (stereo not drawn) | inconclusive [inhibitor, single point] | 
5 | CC(O)(COc1ccccc1)c1ccc2c(c1)CN(Cc1ccc3nsnc3c1)CCO2 (stereo not drawn) | inconclusive [inhibitor, single point] | 
6 | COC(=O)CC1C2(C)CC34OC5(C)O[C@@]6(C7/C(=C(/O)C(C)C)C(=O)OC(c8ccoc8)[C@]7(C)C(OC(C)=O)C(OC(C)=O)[C@]6(O5)[C@@]13C)C(OC(C)=O)[C@]4(O)C2OC(=O)C(C)C (stereo partly drawn) | inconclusive [inhibitor, partial curve] | 
7 | CC(C)NC(=O)N1CCC2(CC1)CCN(C(=O)c1cccn1C)CC2 | inactive | 
8 | Clc1ccccc1-c1cc(NCc2ccccc2)ncn1 | inconclusive [inhibitor, partial curve, poor fit] | 
9 | CC(C)Cc1nc2cc(NS(=O)(=O)N(C)C)cc(C(=O)N3CCOc4ccccc4C3)c2n1C | inactive | 
10 | CC(C)C[C@@H](COc1ccccc1)N1CCN(Cc2ccccc2)CCC1=O | active: 17.8 µM | 
11 | O=C(Nc1ccc(O)cc1)c1ccccc1O | inconclusive [inhibitor, single point] | 
12 | COC(=O)[C@@H]1CCCN1C(=O)c1c(OC)cc(=O)n2c1CCN(Cc1ccc3c(c1)CCO3)CC2 | inconclusive [inhibitor, full curve, poor fit] | 
13 | C/C=C/C=N/NC(=O)c1ccncc1 | inactive | 
14 | COC(=O)N1CCC2(CCCN(Cc3nccs3)C2)CC1 |  | inconclusive: -31% [inhibitor]
15 | COc1ccc(C(=O)NCC2Cc3cc(C)cc(-c4nc5ccccc5s4)c3O2)c(OC)c1OC (stereo not drawn) | inconclusive [inhibitor, single point] | 
16 | Cc1cnc(C)c(-c2cccc3c2OC(CNC(=O)C[C@@H]2C[C@@H](C)NC(=S)N2)C3)n1 (stereo partly drawn) | inactive | 
17 | CC(C)NC(=O)c1cn([C@H]2CC[C@@H](NC(=O)/C=C/c3cccs3)CC2)nn1 | inconclusive [inhibitor, partial curve, poor fit] | 
18 | OC[C@@H](O)C(O)[C@H](O)CO | inconclusive [inhibitor, partial curve, poor fit] | 
19 | O=C(CN1Cc2ccccc2OC(c2ccccc2F)C1)NC(c1ccccn1)C(F)(F)F (stereo not drawn) | inconclusive [inhibitor, single point] | 

Row | Structure (SMILES) | Potency | activity, negative = inhibition
20 | Cc1cc(C)n(-c2cccc(C(=O)NCC3Cc4cccc(-c5ccccn5)c4O3)c2)n1 (stereo not drawn) | inconclusive [inhibitor, single point] | 
21 | CCCC[C@H]1COCCS(=O)(=O)N1Cc1ccccc1F | inconclusive [inhibitor, partial curve, poor fit] | 
22 | C=C1C(=O)O[C@@H]2[C@H]3O[C@]3(C)CC/C=C(\C)CC[C@@H]12 | inconclusive [inhibitor, single point] | 
23 | Cc1cccc(C(=O)O[C@H]2[C@H](Cc3ccccc3)NS(=O)(=O)[C@H]3CC4C=C[C@]23O4)c1 | inconclusive [inhibitor, partial curve, poor fit] | 
24 | Cc1cc(C(=O)NNCc2ccccc2)no1 | inconclusive [inhibitor, single point] | 
25 | C=CCCCCCCCCCCCC(O)CC(O)COC(C)=O (stereo not drawn) | inconclusive [inhibitor, partial curve, poor fit] | 
26 | CN(Cc1cccc2ncccc12)C(=O)c1cnn(-c2nccc(-c3ccccc3F)n2)c1C1CC1 | inconclusive [inhibitor, full curve] | 
27 | CC1=CC(=O)C2=C(C)C[C@H](OC(=O)Cc3ccccc3)C3[C@H](OC(=O)[C@H]3C)C12 (stereo partly drawn) | inconclusive [inhibitor, single point] | 
28 | CN1CCN(C2=Nc3cc(Cl)ccc3Nc3ccccc32)CC1 |  | inconclusive: -31% [inhibitor]
29 | COc1cc([C@@H]2c3cc4c(cc3C(O[C@@H]3O[C@@H]5COC(c6cccs6)O[C@H]5[C@H](O)[C@H]3O)C3COC(=O)[C@@H]32)OCO4)cc(OC)c1O (stereo partly drawn) | inactive | 
30 | CCCCCCCCCCCCCCCC(=O)NCCO | inconclusive [inhibitor, single point] | 
31 | Cc1ccc(S[C@@H](CCN2CC[C@H](C)CCC2=O)c2ccccc2)cc1 | inconclusive [inhibitor, partial curve, poor fit] | 
32 | O=c1cnc2cnc(Oc3cccc(Cl)c3)nc2n1C1CC1 | inconclusive [inhibitor, partial curve, poor fit] | 
33 | C[C@@H]1[C@H](c2ccccc2)OCCS(=O)(=O)N1Cc1ccccc1Br | inconclusive [inhibitor, full curve] | 
34 | CC(=O)Nc1ccc(S[C@@H](CCN2CC[C@H](C(C)(C)C)CCC2=O)c2ccccc2)cc1 | inconclusive [inhibitor, partial curve, poor fit] | 
35 | COc1cccc(CN2CCC3(CC2)c2ccccc2[C@@H](NC(=O)c2ccccc2)[C@@H]3O)c1O | inconclusive [inhibitor, full curve, poor fit] | 
36 | O=C1CCC[C@@H]2Cc3nc4ccc(Cl)cc4cc3[C@@H]3CCN1[C@H]23 | inconclusive [inhibitor, partial curve, poor fit] | 
37 | CC1(C)C(=O)NC2=C1C(=O)C(=O)c1ccccc12 | inconclusive [inhibitor, partial curve, poor fit] | 
38 | Cc1ccc(-c2ncc(Cl)cc2-c2ccc(S(C)(=O)=O)cc2)cn1 | inactive | 
